In the supplement of paper PMC4604168 (melanoma cell lines):
Some of the results follow. Repeats are few or missing, and single values can be far off.

Test system: WM3526
Assay: cell count relative to DMSO control; melanoma cells; higher = more viable cells
Settings: library dose: low library concentration; 72 h
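Also: cell number obtained by counting DAPI-stained nuclei in high-throughput microscope images with image analysis software, screen run in 1,536-well plates.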

**Q.** With `CN(C)S(=O)(=O)c1ccc2c(c1)/C(=C/c1cc3c([nH]1)CCCC3)C(=O)N2` + O=C(O)c1ccc(-c2c[nH]c3ncc(-c4ccccc4)cc23)cc1C1CCCC1 [GSK650394] (first compound 0.4 µM, partner dose 0.16 µM) as the molecule, how does the cell count read?
**A.** 91.5%

**Q.** Which cell count does the source give for `CO[C@@H]1[C@H](N(C)C(=O)c2ccccc2)C[C@H]2O[C@]1(C)n1c3ccccc3c3c4c(c5c6ccccc6n2c5c31)C(=O)NC4` [Midostaurin] + O=C(Nc1cccc(Cl)c1)Nc1ncc(CCNc2ncnc3ccsc23)s1 [SNS314] (first compound 0.08 µM, partner dose 0.0008 µM) here?
**A.** 88%

**Q.** `C=CCn1c(=O)c2cnc(Nc3ccc(N4CCN(C)CC4)cc3)nc2n1-c1cccc(C(C)(C)O)n1` + OCCn1cc(-c2cnc3nnn(Cc4ccc5ncccc5c4)c3n2)cn1 [PF04217903] (first compound 0.02 µM, partner dose 1 µM) was tested. Which cell count did it give?
**A.** 45.1%

**Q.** For `C[C@]1(c2nc3c(C(N)=O)cccc3[nH]2)CCCN1` [Veliparib] + COc1ccc2c(c1)CCC1C2CCC2(C)C(NCCCCCCN3C(=O)C=CC3=O)CCC12 [U73122] (first compound 1.4 µM, partner dose 0.4 µM), which cell count is on record?
**A.** 104%

**Q.** How did the cell count turn out when `CO[C@@H]1[C@H](N(C)C(=O)c2ccccc2)C[C@H]2O[C@]1(C)n1c3ccccc3c3c4c(c5c6ccccc6n2c5c31)C(=O)NC4` [Midostaurin] + Cc1cc([N+](=O)[O-])ccc1NS(=O)(=O)c1cc(Cl)ccc1Cl [FH535] (first compound 0.08 µM, partner dose 1 µM) was run?
**A.** 100%

**Q.** With `NC(=O)Nc1cc(-c2cccc(F)c2)sc1C(=O)N[C@H]1CCCNC1` + CCCCCCCCCCCC1=C(O)C(=O)C=C(O)C1=O [Embelin] (first compound 0.02 µM, partner dose 1.2 µM) as the molecule, how does the cell count read?
**A.** 92.5%

**Q.** `CO[C@@H]1[C@H](N(C)C(=O)c2ccccc2)C[C@H]2O[C@]1(C)n1c3ccccc3c3c4c(c5c6ccccc6n2c5c31)C(=O)NC4` [Midostaurin] + CCN(CC)CCCCNc1ncc2cc(-c3cc(OC)cc(OC)c3)c(NC(=O)NC(C)(C)C)nc2n1 [PD173074] (first compound 0.08 µM, partner dose 0.1 µM) was tested. Which cell count did it give?
**A.** 128%

**Q.** `CO[C@@H]1[C@H](N(C)C(=O)c2ccccc2)C[C@H]2O[C@]1(C)n1c3ccccc3c3c4c(c5c6ccccc6n2c5c31)C(=O)NC4` [Midostaurin] + Cn1cncc1[C@@](N)(c1ccc(Cl)cc1)c1ccc2c(c1)c(-c1cccc(Cl)c1)cc(=O)n2C [tipifarnib] (first compound 0.08 µM, partner dose 0.01 µM) was tested. Which cell count did it give?
**A.** 104%

**Q.** For `CO[C@@H]1[C@H](N(C)C(=O)c2ccccc2)C[C@H]2O[C@]1(C)n1c3ccccc3c3c4c(c5c6ccccc6n2c5c31)C(=O)NC4` [Midostaurin] + CN(NC(=O)CC(=O)NN(C)C(=S)c1ccccc1)C(=S)c1ccccc1 [STA4783] (first compound 0.08 µM, partner dose 0.006 µM), which cell count is on record?
**A.** 71.4%

**Q.** With `Cc1nc(Nc2ncc(C(=O)Nc3c(C)cccc3Cl)s2)cc(N2CCN(CCO)CC2)n1` [dasatanib] + CC(C)CCN1c2nc(Nc3cc(F)c(O)c(F)c3)ncc2N(C)C(=O)C1C [BID1870] (first compound 0.004 µM, partner dose 0.2 µM) as the molecule, how does the cell count read?
**A.** 70%

**Q.** `NC(=O)Nc1cc(-c2cccc(F)c2)sc1C(=O)N[C@H]1CCCNC1` + COC(=O)c1sccc1S(=O)(=O)Nc1ccc(Nc2ccccc2)cc1OC [GSK0660] (first compound 0.02 µM, partner dose 1 µM) was tested. Which cell count did it give?
**A.** 94.2%

**Q.** Which cell count does the source give for `Cc1nc(Nc2ncc(C(=O)Nc3c(C)cccc3Cl)s2)cc(N2CCN(CCO)CC2)n1` [dasatanib] + NCC(=O)Nc1ccc(-n2nc(C(F)(F)F)cc2-c2ccc3c(ccc4ccccc43)c2)cc1 [OSU03012] (first compound 0.004 µM, partner dose 1 µM) here?
**A.** 45.9%

**Q.** How did the cell count turn out when `NC(=O)Nc1cc(-c2cccc(F)c2)sc1C(=O)N[C@H]1CCCNC1` + O=C(O)C(=O)Nc1sc2c(c1C(=O)O)CCNC2 [TCS401] (first compound 0.02 µM, partner dose 1.66667 µM) was run?
**A.** 72.6%

**Q.** For `OCCn1cc(-c2cnc3nnn(Cc4ccc5ncccc5c4)c3n2)cn1` + COc1ccc(COc2ccc(Cc3cnc(N)nc3N)cc2OC)cc1 [GW2580] (first compound 1 µM, partner dose 1 µM), which cell count is on record?
**A.** 77.5%
